The RNAGym collection of RNA variant scans (doi:10.1093/nar/gkz1192)
The source gives no read counts; variants with many changes may rest on few reads.

B1: CPEB3 Ribozyme (parent)
chain: UAACAGGGGGCCACAGCAGAAGCGUUCACGUCGCAGCCCCUGUCAGAUUCUGGUGAAUCUGCGAAUUCUGCUGUAUAUCUC

Variants of: B1
Assay: self-cleavage, relative activity (ratio to wild type); higher = more cleavage; in vitro, sequencing
Summary of the method: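 CPEB3 self-cleaving ribozyme mutant libraries were made by rounds of error-prone PCR, barcoded, and transcribed in vitro with T7 RNA polymerase for 5 hours at 37°C. Cleavage occurred during transcription and a 15 min DNase I step before EDTA stop. RNAs were reverse transcribed with template switching and Illumina-sequenced, with DNA sequencing mapping barcodes to variants. Relative activity is the variant's cleaved/total read fraction divided by wild type's (minimum 5 reads), averaged across three batches.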
For UAACAGGGCGCCACAGCGGAAGCGUUCACGUCGCAGCCCCUGUCAGAUUCUGGUGAAUCUGCGAAUUCUGCUGUGUAUCUC [G9C A18G A75G], the self-cleavage was 0.18.
UAACAGGGCGCCACAGCAGAAGCGUUCACGUCGCAGCCCAUGUCAGAUUCCGGUGAAUCUGCGAAUUCUGCUGUAUAUCUC [G9C C40A U51C] showed a self-cleavage of 0.15.
UAACAGGGAGCCACAGCAGAAGCGUUCACGUCGCAGCCCCUGUCAGAUUCUGGUGAAUCUGCGAACACUGCUGUAUAUCUC [G9A U66C U67A] showed a self-cleavage of 0.16.
Work on UAACAGGGAGCCACAGCAGAAGCGUUCACGUCGCAUCCCCUGUCAGCUUCUGGUGAAUCCGCGAAUUCUGCUGUAUAUCUC [G9A G36U A47C U60C] yielded a self-cleavage of 0.25.
Work on UAACAGGGACCCACAGCAGAAGCGUUCACGUCGCAGCCCCUGCCAGAUUCUGGUGAAUCUGCGGAUUCUGCUGUGUAUCUC [G9A G10C U43C A64G A75G] yielded a self-cleavage of 0.23.
For UAACAGGGAGCCACAGCAGAAGCGCUCUCGUCGCAGCUCCUGUCAGGUUCUGGUGGAUCUGCGAAUUCUGCUGUAUAUCUC [G9A U25C A28U C38U A47G A56G], the self-cleavage was 0.04.
Work on UAACAGGGAGCCACAGCAGAAGCGUUCACGCCGCAGCCCCUGUCAGAUUCUGGUGAAUCUGCGGAUUCCGCUGUAUAUCAC [G9A U31C A64G U69C U80A] yielded a self-cleavage of 0.07.
UAACAGGGCGCCACACCAGAAGCGUUCUCGUCGCAGCCCCUGUCAGAUUCAGGUGUAUCUGCGAAUUCUGCUGUAUAACUC [G9C G16C A28U U51A A56U U78A] showed a self-cleavage of 0.05.
For UAACAGGGCGCCUCAGCAGAAGCGUUCACGUCGCAGCCCCUGUCAGAUUCUGGUGAAUCUGCGAGUGCAGCUGUAUAUCUC [G9C A13U A65G U67G U69A], the self-cleavage was 0.16.
UAACAGGGCGCCACAGCAGAAGCGUUCACGUCGCGGCCCCUGUCAGAUUCUGGUGAAUCUGCGAAUUCUGCUGUAUACCUC [G9C A35G U78C] showed a self-cleavage of 0.41.
UAACAGGGAGCCACAGCAGAAGCGUUCACGUCGCAGCCCCUGUCAGACUCUGGUGAAUCCGCGAAUUCUGCUGUAUAUCUC [G9A U48C U60C] showed a self-cleavage of 0.21.
With UAACAGGGCGCCACUGCAGAAGCGUUUACGUCGCAGCCCCUGGUAGAUUCUGGUGAAUCUGCGAAUUCCGCUGUAUAUCUC [G9C A15U C27U U43G C44U U69C] the self-cleavage was 0.07.
Work on UAACAGGGAGCCACAGCAGAAGCGUUCACGUCGCAGCCCCUGUCAGAUUCUGGCGAAUCUACGAAUUCUGCUGUAUAUCUC [G9A U54C G61A] yielded a self-cleavage of 0.12.
For UAACAGGGAGCCACAGCAGAAGCGUUCACGUCGCAGCCCCUGCCAGAUUCUGGUGAAUCUGCUAAUUCUGCUUUAUAUCUC [G9A U43C G63U G73U], the self-cleavage was 0.74.
For UAACAGGGAGCCACAGCAGAAACGUUCACGUCGCAGCCCCUGUCAGAUUCUGGUAAAUCUGCGAAUUCUGCUGUAUAUCAC [G9A G22A G55A U80A], the self-cleavage was 0.05.
Work on UAACAGGGAGCCACAGCAGAAGCGCUCUCGCCGCAGCCCCUGUCAGAUCCUGGUGAAUCUGCGAGUUCUGCUGUAUAUCUC [G9A U25C A28U U31C U49C A65G] yielded a self-cleavage of 0.06.
Work on UAACAGGGAGCCACAGCAGAAGCCUUCACGUCGCGGCCCCUGUCAGAUGCCGGUGAAUCUGCGAAUUCUGCUGUAUACCUC [G9A G24C A35G U49G U51C U78C] yielded a self-cleavage of 0.13.
UAACAGGGAGCCACAGCAGAAGCGUUCACGUCGCAGCCCCCGUCAGAUUCUGGAGAAUCAGCGAAUUCUGCUGGUUAUCUC [G9A U41C U54A U60A U74G A75U] gave a self-cleavage of 0.09.
Variant UAACAGGGAGCCACAGCAGAAGCGUUCACGUCACAGCCCCAGUCAGAUUCAGGUGAAUCUGCGAGUUCUGCUGUAUGACUC [G9A G33A U41A U51A A65G A77G U78A] has a self-cleavage of 0.04.
UAACAGGGCGCCACAGCGGAUGCGUUCACGUCGCAGCCCCUGACAGAUUCUGGUGAAUCUGCGAGUUCUGCUGUAUAUCUC [G9C A18G A21U U43A A65G] gave a self-cleavage of 0.04.
For UAACAGGGAGCCACAGCAGAAGCGUUCACGUCGCAGCCCCUGUCAGAUUCUGGAGAAUCAGCGAAUUCUGCUGUAUACCUC [G9A U54A U60A U78C], the self-cleavage was 0.08.
UAACAGGGACCCACAGCAGAAGCGUUCACGUCGCAGCCCCUGUCAGAUUCUGGUGAAUCUGCGGAUUCUGCUGUAUAUCUC [G9A G10C A64G] gave a self-cleavage of 0.48.
Variant UAACAGGGAGCCACAGCACAAGCGUUCACGUCGCAGCCCGUGUCAGAUUCUGGUGUAUCUGCGAAUUCAGCUGUAUGUCUC [G9A G19C C40G A56U U69A A77G] has a self-cleavage of 0.07.
Variant UAACAGGGACCCACAGCGGAAGCGUUCACGUCGCAGCCCCUGUCAGAUUCUGGUGAAUCUGCGAAUUCUGCUGUAUAUCUC [G9A G10C A18G] has a self-cleavage of 0.18.
Variant UAACAGGGAGCCACAGCAGAAGCGCUCACGUCGCAGCCCCUGUCAGAUUCUGGUGAAUCUGCGGAUUCUGCUGUAUAUCAC [G9A U25C A64G U80A] has a self-cleavage of 0.06.
For UAACAGGGAGCCACAGCAGAAGCGUUCACGUCGCAGCUCCUGUCAGAUUCUGGUGAAUCUGCGAAUUCUGCCGUAUGUCUC [G9A C38U U72C A77G], the self-cleavage was 1.09.
With UAACAGGGCGCCACAGCAGAAGCGUUCACGUCGCAACCCCUGUCAGCUUCUGGUGAAUCUGCGAAUUCUGCUAUAUAUUAC [G9C G36A A47C G73A C79U U80A] the self-cleavage was 0.35.
Variant UAACAGGGAGCCACAGCAGAAGCGUUCACGUCGCAGCCCUUGUCAGAUUCCGGUGAAUCUGCGAAUUCUGCUGUAUAUCUC [G9A C40U U51C] has a self-cleavage of 0.07.
In the case of UAACAGGGAGCCACAGCAGAAGCGUACACGUCGCAGCCCCUGUUAAAUCCUGGUGAAUCUGCGAAUUCUGCUGUAUAUCUC [G9A U26A C44U G46A U49C], the self-cleavage is reported as 0.15.
UAACAGGGCGCCACAGCUGGAGCGUUCACGUCGCAGCCCCUGUCAGAUUCUGGCGAAUCUGCGAAUUCUGCUGUAUAUCCC [G9C A18U A20G U54C U80C] gave a self-cleavage of 0.34.
With UAACAGGGAGCCACAGCAGAAGCGUUCACGUCGCAGCCCCUGACUGAUUCUGGUGAAUCUGCGAAUUCUGCUGUAUAUAUC [G9A U43A A45U C79A] the self-cleavage was 0.05.
In the case of UAACAGGGAGCCACAGCAGAAGCGUUCACGUCGCAGCCCCAGUCAGACUCUGGUGAAUCUGCGAAUUCCGCUGUAUAUCUC [G9A U41A U48C U69C], the self-cleavage is reported as 0.17.
With UAACAGGGCGCCACAGCAGAAGCGCUCACGUCGCAGCCCCCGUCAGAAUCUGGUGUAUCUGCGGAUUCUGCUGUAUAUCUC [G9C U25C U41C U48A A56U A64G] the self-cleavage was 0.05.
UAACAGGGAGCCACAGCAGAAGCGUUCACGUCGCAGCCCCUGGCAGAUUCUGGUGAAUCUGCGAAUUCUGCCGUAUAUCUC [G9A U43G U72C] gave a self-cleavage of 0.08.
